Laboratory results from the antibiotic and cytotoxicity screens of Wong et al. (2023).
The list shows a part of the results.

What was measured:
HSkMC = human skeletal muscle cells; experiment: cytotoxicity call (relative viability < 0.9); conditions: 10 µM
HepG2 = experiment: cytotoxicity call (relative viability < 0.9); conditions: 10 µM
S. aureus RN4220 = experiment: growth inhibition call (relative growth <= 0.2); conditions: 50 µM

COc1ccc(CNC(=O)C[C@@H]2CC[C@@H]3[C@H](COc4ccc(NC(=O)C(C)C)cc4C(=O)N3C)O2)cc1
inactive: cytotoxicity call (HSkMC) | cytotoxicity call (HepG2) | growth inhibition call (S. aureus RN4220)

C[C@@H]1CN([C@@H](C)CO)C(=O)c2cc(NC(=O)CCCCCC(=O)Nc3ccccc3N)ccc2O[C@@H]1CN(C)C(=O)Nc1ccccc1
inactive: cytotoxicity call (HSkMC) | cytotoxicity call (HepG2) | growth inhibition call (S. aureus RN4220)

COc1ccc(NC(=O)Nc2ccc3c(c2)C(=O)N([C@H](C)CO)C[C@H](C)[C@@H](CN(C)Cc2ccc(-c4ccccc4)cc2)O3)cc1
inactive: cytotoxicity call (HSkMC) | cytotoxicity call (HepG2) | growth inhibition call (S. aureus RN4220)

COc1ccccc1C#Cc1ccc2c(c1)O[C@@H](CN(C)C(C)=O)[C@@H](C)CN([C@H](C)CO)S2(=O)=O
inactive: cytotoxicity call (HSkMC) | cytotoxicity call (HepG2) | growth inhibition call (S. aureus RN4220)

CC(=O)NCc1nnnn1-c1ccc(C)cc1
inactive: cytotoxicity call (HSkMC) | cytotoxicity call (HepG2) | growth inhibition call (S. aureus RN4220)
